Results as given in the supplement of paper PMC10723795.
Counter-ions that a name gives are not always drawn. The list shows a part of the results.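 How the source made its calls: active = more than 2 SD below the DMSO mean: under 0.85 at 10 µM or 0.885 at 1 µM; inactive = the rest.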 Repeats are few or missing, and single values can be far off.

Tested on: RPE1
Test: nucleolar normality score relative to DMSO (fraction of DMSO control); RPE1 is a non-cancer human cell line; higher = more normal nucleoli (less nucleolar stress)
Conditions: 24 h
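Further: fixed cells immunolabelled for nucleolin and UBF, 40 image fields per well in 384-well plates, per-cell score = nucleolin nucleolar/nucleoplasm intensity ratio divided by the matching UBF ratio.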

| Compound | nucleolar normality score (1 µM) | nucleolar normality score (10 µM) |
| --- | --- | --- |
| CNc1nc(-c2ccc3c(N)n[nH]c3c2)cc(N2C[C@@H](C(=O)NC3CCCCC3)CC[C@H]2C)n1 | inactive: 1.04 | active: 0.84 |
| COc1ccc(-c2coc3cc(O)ccc3c2=O)cc1 [Formononetin] | inactive: 0.96 | inactive: 0.853 |
| O=C(Nc1cc(C(F)(F)F)cc(C(F)(F)F)c1)c1cc(Cl)ccc1O | active: 0.488 | active: 0.471 |
| NC(=O)N1CCC(CC(=O)N2CCC([C@H]3c4ncc(Br)cc4CCc4cc(Cl)cc(Br)c43)CC2)CC1 [Lonafarnib] | inactive: 1.08 | inactive: 0.967 |
| O=C1C[C@@H](c2ccc(O[C@@H]3O[C@H](CO)[C@@H](O)[C@H](O)[C@H]3O)cc2)Oc2cc(O)ccc21 [Liquiritin] | inactive: 1.05 | inactive: 0.929 |
| Cc1ccc(S(=O)(=O)C=CC#N)cc1 | inactive: 1.01 | inactive: 0.895 |
| CC(C)Nc1cc(-c2c[nH]c(C(=O)N[C@H](CO)c3cccc(Cl)c3)c2)c(Cl)cn1 | inactive: 0.923 | inactive: 0.992 |
| O=C(c1cc(Cc2n[nH]c(=O)c3ccccc23)ccc1F)N1CCN(C(=O)C2CC2)CC1 | inactive: 0.97 | inactive: 1.07 |
| CC(C)(C)C(=O)Nc1ccc2c(c1)C(=O)C(=O)c1ccccc1-2 | inactive: 1.03 | inactive: 1.08 |
| N=C1NC(=O)/C(=C/c2ccc(O)cc2)S1 [Mirin] | inactive: 0.959 | inactive: 0.959 |
| CCCc1cc(C)[nH]c(=O)c1CNC(=O)c1cc(-c2ccc(N3CCN(C(C)C)CC3)nc2)cc2c1cnn2C(C)C | inactive: 0.964 | inactive: 0.993 |
| COc1c(C)c(C(=O)c2ccc(N)c(C(=O)O)c2)n2ccccc12 | inactive: 1.08 | inactive: 1.08 |
| CN[C@@H](C)C(=O)N[C@H](C(=O)N1CCC[C@H]1c1nc(C(=O)c2ccc(F)cc2)cs1)C1CCCCC1 | inactive: 1.05 | inactive: 1.05 |
| O=C1C[C@@H](c2ccccc2)Oc2cc(O)cc(O)c21 [Pinocembrin] | inactive: 1.07 | inactive: 1.06 |
| CC(C)C[C@H](NP(=O)(O)O[C@@H]1O[C@@H](C)[C@H](O)[C@@H](O)[C@H]1O)C(=O)N[C@@H](Cc1c[nH]c2ccccc12)C(=O)O [Phosphoramidon Disodium Salt] | inactive: 0.905 | inactive: 0.994 |
| COc1ccc(-c2ccc3c(N4CCOC[C@@H]4C)nc(N4CCOC[C@@H]4C)nc3n2)cc1CO | inactive: 1.05 | inactive: 1.04 |
| COC(=O)c1ccc2c(c1)nc(NC(=O)c1ccccc1)n2CCCc1ccccc1 | inactive: 0.965 | inactive: 1 |
| C[C@@]1(C(=O)Nc2ccc(F)nc2)CCCN1c1nc(Nc2cc(C3CC3)n[nH]2)c2cccn2n1 | inactive: 0.992 | inactive: 1.03 |
| N#Cc1ccc(C(c2ccc(C#N)cc2)n2cncn2)cc1 [Letrozole] | inactive: 1.03 | inactive: 1.06 |
| O=C(Nc1cccc(C(F)(F)F)c1)c1cccc2cc(Oc3cc(CO)ncn3)ccc12 | inactive: 1.01 | inactive: 1.07 |
| CN(CC(=O)N(Cc1ccc(C2CCCCC2)cc1)c1ccc(C(=O)O)c(O)c1)S(=O)(=O)c1c(F)c(F)c(F)c(F)c1F | inactive: 1.02 | inactive: 1.02 |

| Compound | nucleolar normality score (1 µM) | nucleolar normality score (10 µM) |
| --- | --- | --- |
| CC(=O)Nc1ccc(C(=O)Nc2ccccc2N)cc1 [Tacedinaline (CI994)] | inactive: 1.02 | inactive: 0.878 |
| COc1cc2c(Nc3ccc(NC(=O)c4ccccc4)cc3)ncnc2cc1OCCCN1CCOCC1 | inactive: 0.995 | inactive: 1.01 |
| O=c1[nH]nc2c3c(cccc13)N=C(CN1Cc3ccccc3C1)N2 | inactive: 1.01 | inactive: 1.05 |
| O=C(O)[C@]1(Cc2cccc(Nc3nccs3)n2)CC[C@@H](Oc2cccc(Cl)c2F)CC1 | inactive: 1 | inactive: 1.05 |
| C#Cc1cccc(Nc2ncnc3cc(OC)c(OCCCCCCC(=O)NO)cc23)c1 | inactive: 1.06 | active: 0.514 |
| COc1cccc2c1c(O)c(C(=O)N(C)c1ccc(C(F)(F)F)cc1)c(=O)n2C [Tasquinimod] | inactive: 0.985 | inactive: 0.985 |
| N=C(N)NC(=N)NCCc1ccccc1 [Phenformin HCl] | inactive: 1.02 | inactive: 0.898 |
| O=c1[nH]c(C2CCCN2)nc2c1oc1ccc(Cl)cc12 (configuration not stated) | inactive: 1.06 | inactive: 1.11 |
| C[C@@H](Oc1ccc2[nH]nc(/C=C/c3cnn(CCO)c3)c2c1)c1c(Cl)cncc1Cl | inactive: 0.957 | inactive: 0.941 |
| CN(C)C/C=C/C(=O)Nc1ccc(C(=O)Nc2cccc(Nc3ncc(Cl)c(-c4c[nH]c5ccccc45)n3)c2)cc1 | active: 0.671 | active: 0.2 |
| O=C1NC(=O)C(c2cnc3ccccn23)=C1c1cn2c3c(cc(F)cc13)CN(C(=O)N1CCCCC1)CC2 | active: 0.784 | active: 0.702 |
| COc1cc2ncnc(Sc3nnc(C)s3)c2cc1OC | inactive: 0.972 | inactive: 1.04 |
| N=C1CCCN1Cc1[nH]c(=O)[nH]c(=O)c1Cl [Tipiracil hydrochloride] | inactive: 1.01 | inactive: 0.932 |
| C[C@@H]1Cc2c([nH]c3ccccc23)[C@@H](c2c(F)cc(/C=C/C(=O)O)cc2F)N1CC(C)(C)F | inactive: 0.981 | inactive: 1.01 |
| CC(=O)Nc1cccc(-n2c(=O)n(C3CC3)c(=O)c3c(Nc4ccc(I)cc4F)n(C)c(=O)c(C)c32)c1 | inactive: 0.982 | active: 0.849 |
| CC(C)Oc1ccc(-c2c[nH]cc2CN(C)CCN)cc1 | inactive: 1.08 | inactive: 1.04 |
| C[C@@H](C(=O)Nc1ccc(Cl)cc1)C1CCC(c2ccnc3ccc(F)cc23)CC1 (some centres not stated) | inactive: 1.06 | inactive: 1.06 |
| CC(C)(C)c1cnc(CSc2cnc(NC(=O)C3CCNCC3)s2)o1 | active: 0.242 | active: 0.209 |
| COc1cc(Br)c(Nc2nc(-c3c(C)nc4ncccn34)cs2)c(Br)c1 | inactive: 1.02 | inactive: 1.06 |
| CC(=Cc1ccc(C(=O)O)cc1)c1ccc2c(c1)C(C)(C)CCC2(C)C [TTNPB (Arotinoid Acid)] | inactive: 1.07 | inactive: 1.1 |
| Cc1ccc(C(=O)c2ccc(CC(=O)O)n2C)cc1 [Tolmetin] | inactive: 1.01 | inactive: 0.94 |

| Compound | nucleolar normality score (1 µM) | nucleolar normality score (10 µM) |
| --- | --- | --- |
| COC(=O)Nc1nc2cc(C(=O)c3cccs3)ccc2[nH]1 [Nocodazole] | inactive: 0.928 | inactive: 0.86 |
| N#CN=C(NCCCCCCOc1ccc(Cl)cc1)Nc1ccncc1 | inactive: 1.03 | inactive: 1.06 |
| CCOC(=O)c1ccc(N2NC(=O)C(=Cc3ccc([N+](=O)[O-])o3)C2=O)cc1 | inactive: 1.02 | inactive: 1.06 |
| CCNC(=O)c1noc(-c2cc(Cl)c(O)cc2O)c1-c1ccc(OC)cc1 | inactive: 0.898 | active: 0.468 |
| CCC1=C[C@@H]2CN(C1)Cc1c([nH]c3ccccc13)[C@@](C(=O)OC)(c1cc3c(cc1OC)N(C)[C@H]1[C@@](O)(C(=O)OC)[C@H](OC(C)=O)[C@]4(CC)C=CCN5CC[C@]31[C@@H]54)C2 [Vinorelbine Tartrate] | inactive: 0.994 | inactive: 0.912 |
| C=CC(=O)Nc1cccc(Nc2nc(Nc3ccc(NC4CN(CCF)C4)cc3OC)ncc2C(F)(F)F)c1 | inactive: 0.966 | inactive: 1.01 |
| c1ccc2c(Oc3nc(Nc4ccc(N5CCOCC5)cc4)c4ncn(C5CCCCC5)c4n3)cccc2c1 [Purmorphamine] | inactive: 0.98 | inactive: 1.02 |
| C[C@]12C=CC(=O)C=C1CC[C@@H]1[C@@H]2C(=O)C[C@@]2(C)[C@H]1CC[C@]2(O)C(=O)CO [Prednisone] | inactive: 0.916 | inactive: 0.902 |
| COc1cc2nccc(Oc3ccc(NC(=O)Nc4ccc(F)cc4F)c(F)c3)c2cc1OC | inactive: 1.03 | inactive: 1.07 |
| CCOC(=O)NCCCC(=O)NCCc1ccccc1 | inactive: 0.971 | inactive: 0.961 |
| CCC[C@H](NC(=O)/C(C#N)=C/c1cccc(Br)n1)c1ccccc1 [Degrasyn (WP1130)] | inactive: 1.03 | inactive: 1.07 |
| COc1cc2c(cc1NS(=O)(=O)c1ccc(Br)cc1C)n(C)c(=O)n2C | inactive: 0.919 | inactive: 1.02 |
| CCc1c2c(nc3ccc(OC(=O)N4CCC(N5CCCCC5)CC4)cc13)-c1cc3c(c(=O)n1C2)COC(=O)[C@]3(O)CC [Irinotecan HCl Trihydrate] | inactive: 1.04 | inactive: 1.08 |
| O=C(NC(NC(=S)Nc1ccc(F)c([N+](=O)[O-])c1)C(Cl)(Cl)Cl)C(c1ccccc1)c1ccccc1 (configuration not stated) | inactive: 0.935 | inactive: 0.996 |
| Oc1cc(CNC(=S)/C=C/c2cc(O)c(O)c(Br)c2)cc(O)c1O | inactive: 0.969 | inactive: 1.02 |
| Cn1cc(C2=C(c3ccc(Cl)cc3Cl)C(=O)NC2=O)c2ccccc21 | inactive: 0.989 | inactive: 0.98 |
| CCOc1cc2ncc(C#N)c(Nc3ccc(OCc4ccccn4)c(Cl)c3)c2cc1NC(=O)/C=C/CN(C)C [Neratinib (HKI-272)] | inactive: 1.04 | active: 0.778 |
| Cc1cc(NC(=O)c2cccc(NC(=O)/C=C/CN(C)C)c2)ccc1Nc1nccc(-c2cccnc2)n1 | inactive: 1.05 | inactive: 1.06 |
| FC(F)(F)c1ccc(/C=C/c2nc(COc3ccc(CCCCn4ccnn4)cc3)co2)cc1 [Mubritinib (TAK 165)] | inactive: 1.01 | inactive: 1.08 |
